Experimental data published in paper PMC4336329 (PLoS ONE, 2015).
Out of some 310,000 compounds screened, about 14,000 (4.5%) showed an effect of 50% or more. The effect is printed as a negative number. The list shows a part of the results.

Molecular target: human ether-à-go-go-related gene (hERG) potassium channel (human, UniProt Q12809)
Assay: primary screen, population patch clamp on CHO cells stably expressing hERG
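Further: peak tail current of the secondary pulse compared with the same well before compound.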

human ether-à-go-go-related gene (hERG) potassium channel, sequence (Q12809 whole entry, looked up): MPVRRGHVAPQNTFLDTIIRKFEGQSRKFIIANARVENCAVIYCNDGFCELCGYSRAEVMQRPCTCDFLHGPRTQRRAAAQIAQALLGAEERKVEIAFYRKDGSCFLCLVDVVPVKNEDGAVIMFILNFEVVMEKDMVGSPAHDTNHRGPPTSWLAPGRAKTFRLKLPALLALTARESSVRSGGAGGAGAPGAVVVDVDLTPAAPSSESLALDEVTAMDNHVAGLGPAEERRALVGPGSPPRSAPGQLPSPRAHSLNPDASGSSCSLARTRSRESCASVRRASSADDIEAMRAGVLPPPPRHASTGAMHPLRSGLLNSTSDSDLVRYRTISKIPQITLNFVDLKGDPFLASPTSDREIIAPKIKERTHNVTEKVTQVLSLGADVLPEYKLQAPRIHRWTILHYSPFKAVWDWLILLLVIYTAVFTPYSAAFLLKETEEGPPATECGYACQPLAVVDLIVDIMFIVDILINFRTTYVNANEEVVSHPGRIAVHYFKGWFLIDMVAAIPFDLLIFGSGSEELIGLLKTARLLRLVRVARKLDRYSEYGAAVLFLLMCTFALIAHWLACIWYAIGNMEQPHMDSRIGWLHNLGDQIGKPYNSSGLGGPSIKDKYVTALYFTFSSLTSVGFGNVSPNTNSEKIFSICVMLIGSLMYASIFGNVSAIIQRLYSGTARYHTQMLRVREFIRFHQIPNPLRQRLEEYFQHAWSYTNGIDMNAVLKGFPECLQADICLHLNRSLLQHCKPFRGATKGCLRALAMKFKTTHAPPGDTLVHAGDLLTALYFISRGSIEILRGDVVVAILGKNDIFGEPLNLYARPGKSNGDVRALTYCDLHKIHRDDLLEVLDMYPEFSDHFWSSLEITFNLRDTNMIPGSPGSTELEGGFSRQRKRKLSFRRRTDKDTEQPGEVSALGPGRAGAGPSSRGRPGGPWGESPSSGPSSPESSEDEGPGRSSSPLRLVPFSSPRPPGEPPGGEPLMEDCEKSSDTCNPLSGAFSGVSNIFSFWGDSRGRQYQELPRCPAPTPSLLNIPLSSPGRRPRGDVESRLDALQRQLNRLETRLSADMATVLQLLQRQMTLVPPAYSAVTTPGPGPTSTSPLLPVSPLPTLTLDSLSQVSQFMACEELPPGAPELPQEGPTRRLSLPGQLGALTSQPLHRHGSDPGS

SMILES	hERG current change (%, negative = inhibition) at 10uM
CCC1CCCCN1CCCNC(=O)c1cn(CC)c2ccc(S(=O)(=O)N(C)C3CCCCC3)cc2c1=O (stereo not shown)	-79.8%
CCNc1nc(NC(C)C)nc(N2CC(=O)N(CC(=O)OCC)C2=N)n1	-13.9%
CCOc1cc(/C=C(/C#N)c2nc3ccccc3[nH]2)ccc1Oc1ccc([N+](=O)[O-])cn1	8.7%
Cc1cccc(NC(=O)Nc2ccc(F)cc2)n1	19%
COCCn1cnc2c(c1=O)c1nc3ccccc3nc1n2/N=C/c1cccc(OC)c1	-16.8%
CC1=NN(c2ccc(C(=O)OC(C)C)cc2)C(=O)/C1=C\C=C\c1ccco1	5.53%
Cn1nnnc1SCC(=O)Nc1cc(C(=O)O)cc(C(=O)O)c1	-5.93%
CCc1cccc(NC(=O)CN(C)S(=O)(=O)c2cnc[nH]2)c1	19.5%
CCCCCCOC(=O)C(C#N)c1nc2ccccc2nc1N1CCOCC1 (stereo not shown)	1.23%
CCOC(=O)N1CCC(N(CCOC)C(=O)Nc2ccc(Cl)c(Cl)c2)CC1	-33.4%
COc1ccc(OCC(O)Cn2c(Br)nc3c2c(=O)[nH]c(=O)n3C)cc1 (stereo not shown)	-12.6%
COc1ccc(CCNC(=O)c2cc(S(=O)(=O)N(C)c3ccccc3)ccc2Cl)cc1	-16.6%
Cc1cc2c(n1-c1ccc(C(=O)O)cc1)CCCCC2	7.7%
Cc1cc2cc(CCNS(C)(=O)=O)c(=O)[nH]c2cc1C	12.6%
COc1ccc(NC(=O)CSc2nc3sc(C)cc3c(=O)n2C)c(OC)c1	-24.9%
CCOC(=O)c1nn(-c2c(C)n(C)n(-c3ccccc3)c2=O)cc1O	16.6%
CCOC(=O)N1CCN(S(=O)(=O)c2ccc(NC(C)=O)cc2)CC1	18.8%
CCOc1cc2c(cc1OCC)CN(CC(=O)Nc1ccccc1C(=O)NC1CC1)CC2	-31.4%
O=C(Nc1nnc(C2CC2)o1)c1ccc(S(=O)(=O)N2CCCc3ccccc32)cc1	-19.3%
CCOC(=O)c1c(NC(=O)C2CCCO2)sc(C(=O)OC(C)(C)C)c1C (stereo not shown)	9.29%
Cc1ccc2c(c1)CCCN2C(=O)c1cc2ccccc2oc1=O	-3.07%
O=Cc1ccc(OCC(=O)N2CCOCC2)cc1	11.4%

SMILES	hERG current change (%, negative = inhibition) at 10uM
COc1cc(/C(C)=N/NC(=O)c2nnn(-c3nonc3N)c2-c2cccs2)ccc1O	16.4%
CCOc1ccccc1OCCCC(=O)ON=C(N)c1ccccc1	6.75%
Cn1c(SCC(=O)O)nnc1C1CCCCC1	3.75%
COC(=O)CSc1nnc(Cc2cc(=O)[nH]c(=O)[nH]2)n1-c1cccc(OC)c1	-4.88%
Cn1c(CCNC(=O)c2ccco2)nc2cc(NS(=O)(=O)c3ccc(Cl)cc3)ccc21	-65.2%
CC1(C)CC(=O)c2cnc3c(C#N)cnn3c2C1	-0.692%
C=CCNC(=O)NC(=O)COC(=O)/C(C#N)=C/c1cc(C)n(CCC(C)C)c1C	12.8%
Cc1cc(C)c(NC(=O)c2cccs2)c(C)c1NC(=O)c1cccs1	20.6%
COc1cc(-c2nc(-c3ccc4c(c3)-c3ccccc3S4(=O)=O)c(-c3ccccc3)[nH]2)cc(OC)c1OC	9.93%
CC(=O)Nc1ccccc1-c1nc2ccccc2nc1OCC(=O)c1ccc2ccccc2c1	15.8%
Cc1[nH]c(=O)[nH]c(=O)c1S(=O)(=O)N1CCCC(C(=O)NCCC2=CCCCC2)C1 (stereo not shown)	8.4%
Nc1nc2ccc(S(=O)(=O)N3CCCCC3)cc2s1	11.5%
CCCS(=O)(=O)N1CCC(C(=O)c2cccc(C(F)(F)F)c2)CC1	-37.6%
COc1ccc(C(C(=O)NC2CCCC2)N(CCCO)C(=O)Cn2nnc(-c3ccc(C)o3)n2)cc1 (stereo not shown)	-10.8%
Cc1cccc(CSC2=NN3CCCC(=O)N=C3S2)c1	-17.7%
COc1cc(CC(=O)OCC(=O)N2CC(C)CC(C)C2)cc(OC)c1OC (stereo not shown)	30.9%
CCC(CC)C(=O)Nc1nnc(S(=O)(=O)N2CCc3ccccc32)s1	17.9%
Clc1cc(Br)ccc1OCCCNCc1ccccc1.O=C(O)C(=O)O	-30.1%
COc1cc(C)c(Cl)cc1S(=O)(=O)n1ccnc1	11.6%
CC(C)(C)OC(=O)N/N=C/c1cccc([N+](=O)[O-])c1	2.34%
CCN(CC)c1nc(Nc2ccccc2)nc(Oc2ccc(=O)[nH]n2)n1	-14.2%
Cc1ccc2c(c1)CC1(CN2C)C(=O)NC(=O)N(C(C)C)C1=O (stereo not shown)	24.1%

SMILES	hERG current change (%, negative = inhibition) at 10uM
CCOC(=O)C1C2C=CC3(CN(c4cccc(Cl)c4)C(=O)C13)O2 (stereo not shown)	9.65%
O=C(CN1C(=O)NC2(CCCCC2)C1=O)N1CCN(S(=O)(=O)c2ccc(F)cc2)CC1	4.02%
O=C(NCCc1ccccc1)C1=CCN(S(=O)(=O)c2ccccc2)CC1	0.496%
Cc1ccc(NC(=O)CS(=O)c2ccccc2N)c(C)c1 (stereo not shown)	24.9%
COc1ccccc1N1CCN(C(=O)c2ccc(-c3nc4ccccc4s3)o2)CC1	-3.16%
COc1ccccc1C(=O)N/C(=C\c1ccc(Br)cc1)C(=O)NCCC(=O)O	23.2%
CCCCC(c1nnnn1CC1CCCO1)N1CCN(Cc2ccccc2)CC1.Cl (stereo not shown)	-47.2%
O=C(N=C1SC2CS(=O)(=O)CC2N1c1ccccc1)c1cccc([N+](=O)[O-])c1 (stereo not shown)	11.5%
O=C(N/N=C/c1ccc(O)cc1)c1cc[n+](Cc2ccccc2)cc1.[Cl-]	-5.97%
CCOc1ccc2c(c1)c(=O)c(S(=O)(=O)c1ccc(CC)cc1)cn2C	13.9%
COc1ccc(CNC(=O)c2ccncc2)cc1	2.81%
COC(=O)c1ccccc1Sc1snnc1C	10.1%
COc1ccc(OCc2cc(C(=O)NC3CCOC(C)(C)C3)no2)c2ccccc12 (stereo not shown)	11.7%
O=C(COc1ccc(S(=O)(=O)N2CCOCC2)cc1)N1CCc2ccccc2C1	-55.9%
CCOc1ccc(C(=O)N/N=C/c2ccc(-c3ccc(S(=O)(=O)Nc4ncccn4)cc3)o2)cc1	15.8%
Cc1ccc(NS(=O)(=O)c2ccc3c(c2)CCC(=O)N3)cc1C	0.68%
COCCN(CCOC)S(=O)(=O)c1ccc(C(=O)NCCCN2CCOCC2)cc1	11.1%
CCOC(=O)c1c(C)oc2cc(Cl)c(O)c(CN(C)C)c12	-6.79%
COc1nc(-c2ccc(C)cc2)ccc1-c1noc(-c2cccnc2)n1	13.5%
Cc1nn(C)c(C)c1S(=O)(=O)NCc1cccs1	2.54%
c1ccc(-c2noc(CN3CCN(c4ccccc4)CC3)n2)cc1	-13%
COc1ccc(C2/C=C\CN(C(=O)c3ccc(C)cc3)[C@H](Cc3ccccc3)C(=O)N2Cc2ccc(F)cc2)cc1 (stereo partly shown)	14.6%

SMILES	hERG current change (%, negative = inhibition) at 10uM
Cc1ncn(-c2ccc(C(=O)Oc3ccccc3)cn2)n1	32.4%
COCc1nnc(NC(=O)c2cccc(NC(=O)C(C)C)c2)s1	10.6%
COc1cc(/C=C/CO)ccc1O[C@@H]1O[C@H](CO)[C@@H](O)[C@H](O)[C@H]1O	21.6%
O=c1[nH]cnc2[nH]ncc12	34%
O=S(=O)(NCC(c1ccc2c(c1)OCO2)N1CCOCC1)c1ccc(Cl)cc1 (stereo not shown)	-23.6%
CN(C)S(=O)(=O)N(CC(=O)N(Cc1ccccc1)Cc1ccccc1)c1ccccc1	-1.97%
CCOc1ccc(-n2ccnc(SCC(=O)NCCc3ccccc3)c2=O)cc1	-11.4%
COc1ccc(NC(=S)Nc2cc(-c3ccccc3)[nH]n2)cc1Cl	12%
COc1ccccc1C(C)NCC(=O)NCC(=O)Nc1ccc(F)c(F)c1F (stereo not shown)	-3.27%
CC1Cc2nc(SCC(=O)NCCc3ccccc3)n(C)c(=O)c2S1 (stereo not shown)	-19.2%
CCCOP(=O)(c1ccc(N(C)C)cc1)C(Nc1ccccc1)c1ccc(N(C)C)cc1 (stereo not shown)	10.8%
NC(=O)NC(=O)COC(=O)c1ccc(Cl)c(S(=O)(=O)N(Cc2ccccc2)c2ccc(Cl)cc2)c1	2.52%
CCOc1ccc(-c2c(C#N)c(N)nc3c2c(=O)n(C)c(=O)n3C)cc1OC	16%
C#CCOCCOCCOCCNc1nc(N2CCOCC2)nc(N2CCN(C(=O)CCCCCCCCCCNC(=O)[C@H]([C@@H](C)CC)n3cc(CCCCN=C(N)N)nn3)CC2)n1	1.76%
CCOC(=O)c1c(-c2cccs2)csc1NC(=O)COC(=O)c1c(C)noc1C	2.09%
COC(=O)c1cn(CCOc2ccc(C)cc2)c2ccccc12	0.253%
O=C(CSc1nnc(CNC(=O)c2ccccc2F)o1)NCC1CCCO1 (stereo not shown)	5.43%
NC(=O)c1ccc(NC(=O)CSC2=Nc3ccccc3C3CC=NN23)cc1 (stereo not shown)	6.79%
Cc1oncc1C(=O)NC(C)C	-3.53%
